# The whole screen tested about 150,000 compounds, of which about 540 (0.36%) showed an effect of 50% or more. The list shows a part of the results.
# Tested on: Plasmodium falciparum
# Test: Primary screen in NF54 nanoGlo assay, in single point, at 2uM, 72h; a lower Z score goes with more inhibition
# Assay type: functional, Erythrocyte
# Settings: timepoint 72 hour
SMILES,% Inhibition,Z score
CCc1onc(C)c1NC(=O)NC[C@H](C)c1nc(C)cs1,-8%,0.88
CN(Cc1nnc[nH]1)S(=O)(=O)c1ccc2nc(C(C)(C)C)sc2c1,-9%,0.75
Cn1c(CS(=O)(=O)Cc2ccccc2OC(F)F)cc(=O)n(C)c1=O,10%,-1.36
O=C(Nc1ccc2nc(N3CCCC3)sc2c1)[C@H]1CCS(=O)(=O)C1,0%,-0.04
COc1ccc(-c2c[nH]c(CNS(=O)(=O)c3cccs3)n2)cc1,-15%,2.38
COc1ccc(CCNC(=O)C(=O)NCCc2ccccc2)cc1,-10%,1.86
Cc1cnn(C[C@H](C)NCc2sc(N3CCOCC3)nc2C)c1,-6%,0.85
CC(C)c1ccc2ncnc(N[C@H]3CCc4[nH]cnc4C3)c2c1,96%,-17.94
Cc1cc(S(=O)(=O)Nc2ccc3cn[nH]c3c2)c(C)o1,-6%,0.78
Cc1nc(C)c(C(=O)OCc2cccc3cccnc23)s1,-18%,3.51
CC(C)CCc1nc([C@@H](N)CO)n(-c2ccc(F)cc2)n1,8%,-1.62
COCC1(CNCc2ccc(Cl)cc2C)CCC1,6%,-1.23
CCOC(=O)N1CC[C@H](Oc2ncccn2)C1,-5%,0.95
O=C(c1cnn2ccccc12)N1CCc2nc[nH]c2C1,0%,-0.07
CC(=O)Oc1ccc(N2C(=O)C3C(Cc4c[nH]c5ccccc45)NC4(C(=O)Nc5ccc(Cl)cc54)C3C2=O)cc1 (stereo not drawn),-9%,0.83
Cc1nc(C)c(-c2ccc(C(=O)NCCN(C)S(C)(=O)=O)cc2)s1,-9%,1.24
CCn1cc(CN2CCC(O)(C(F)(F)F)CC2)cn1,-3%,0.46
Clc1ccc(CN2CCN(c3nc4ccccc4c4nnc(C5CCCCC5)n34)CC2)cc1,9%,-1.47
CN(C(=O)c1cnc(-c2ccsc2)s1)c1nncn1C,1%,-0.12
COc1cncc(C(NC(=O)NC(C)(C)CC(C)(C)C)[C@H]2C[C@H](O)C2)c1 (stereo partly drawn),-13%,2.56
O=C1NC(=O)N2CCN(Cc3ccc(OCc4ccc(F)cc4)cc3)C[C@@H]12,-12%,1.49
CCOC(=O)c1nccc(C#N)c1Cl,40%,-5.19
Cc1cc(C)c(S(=O)(=O)N2CCC3(CC2)NCCN=C3NCc2ccc3c(c2)OCO3)cc1C,-8%,1.1
Cc1cc(C)c(C(=O)N2CCO[C@H](C(=O)C3CC3)C2)o1,9%,-1.71
CCOc1ccc(C(=O)N(C)CCN(C)C(=O)c2ccc(OCC)c(OCC)c2)cc1OCC,2%,-0.31
CCCCc1nc(CN(C)CC#N)cs1,-8%,1.22
Cc1cc(C)cc(OCc2noc(CN(CCO)C3CC3)n2)c1,0%,-0.03

SMILES,% Inhibition,Z score
C[C@H](O)c1cc2n(n1)CCCN(c1nc3ccccc3n1CCO)C2,-6%,1.1
O=C1CC[C@@H](C(=O)NCc2nc(C3CCC(F)(F)CC3)no2)N1,-16%,2.17
Cc1cc([C@@H]2CCCCN2c2nc3c(s2)c(C)nn3C)no1,-1%,0.14
CN(CCc1cccs1)C1Cc2ccccc2C1O (stereo not drawn),-10%,0.97
Cc1cc(Cl)ccc1OCC(=O)NS(C)(=O)=O,-2%,0.36
OCCn1nc(Cc2cccs2)nc1-c1cnc(N2CCOCC2)nc1,-18%,1.61
COc1ccccc1CC(=O)Nc1nc(C)no1,-9%,1.49
Cc1ccc(-c2noc(-c3sccc3S(=O)(=O)N(C)c3ccc4c(c3)OCCO4)n2)cc1C,-5%,0.75
CN(C)S(=O)(=O)CC(=O)N1CCCC[C@@H]1CCc1ccccc1,-5%,0.86
Cn1nc(C(F)(F)F)cc1CS(=O)(=O)c1ccc2c(c1)CCO2,-2%,0.28
Cc1cccc(-n2nc(-c3cn(C)nc3C)c(C)c2-c2cn(C)nc2C)c1,27%,-3.06
Cc1cc(C)nc(N[C@@H](C)c2cn(C)nc2C)n1,-6%,0.94
CN1C(=O)N([C@H]2CCO[C@@H]2c2cnn(C)c2)C(=O)C1Cc1ccccc1 (stereo partly drawn),-2%,0.4
C=CCN1CCN(Cc2cnoc2-c2ccccc2)CC1,10%,-1.83
C[C@H](NC(=O)c1ccccc1N1CCC(NC(=O)NC(C)(C)C)CC1)c1ccccc1,18%,-2.49
Cc1cc(C)c(-n2cccn2)c(CN2C[C@H](N(C)C)C[C@H]2C(=O)O)c1,-18%,1.77
CC(C)(C)C#C[C@@H]1N(c2ccccc2)N=C(c2ccccc2)N1C(C)(C)C,-3%,0.5
CC(C)CC[C@H](NCc1cccnc1N1CCOCC1)c1ccoc1,10%,-1.23
O=c1oc2c(Cl)cc(NS(=O)(=O)c3ccc4ccccc4c3)cc2s1,-33%,4.38
O=C(O)c1cccc(Cl)c1CN1C[C@H]2C[C@@H](O)CC[C@H]2C1,3%,-0.34
COc1ccc(C(=O)Nc2nnc(CCCc3ccccc3)s2)c(OC)c1,-8%,1.5
O=C(NCC1CCCN1CCc1ccccc1)NC1CC2CCC1O2 (stereo not drawn),3%,-0.3
CCc1nnc(-c2c(C)c(S(=O)(=O)NCc3cccc(Cl)c3)c(C)n2CC)o1,-13%,1.61
CCn1c(COCc2ccccc2)nnc1N1CC(=O)N(C)[C@@H](C)C1,-6%,1.12
Cc1ccc(C)c([C@@H](O)CN(CC(=O)NC2CC2)C2CC2)c1,-6%,0.88
Cc1ccc(C(=O)N2CCC[C@]3(CCC(=O)N(C4CCCC4)C3)C2)cc1O,1%,-0.2
CN(Cc1ccccc1)C(=O)Cc1noc([C@H]2CCc3cnn(C)c3C2)n1,-8%,0.88
